Results as given in PubChem BioAssay (Tox21).
“And” between values parts separate entries of the source, which are not always exact repeats. Identical values can stand only once. This list was built around the results that the source calls inconclusive (neither active nor inactive); the mix of calls is not that of the screen. Potencies beside an inconclusive call are fits to weak or partial responses and may not hold up. The source made the active and inactive calls. The call rests on the fitted dose curve; in most records, active means well fitted curve in the direction sought with a large enough effect in the repeat runs; inconclusive means weak or mixed curves; inactive means no such curve, though single readings can be large; an effect the other way counts as inactive or inconclusive.

tested on: not listed separately; assay: qHTS assay to identify small molecule agonists of the constitutive androstane receptor (CAR) signaling pathway - cell viability counter screen (AID 1224836); conditions: HepG2-CYP2B6-hCAR viability, CellTiter-Fluor, 23 h, PK11195 added to every well; series mostly up to 92.4 µM; viability change, negative = cytotoxic: at the top concentration; further: nearly all actives have a fitted effect of over 45% in size
Procedure, shortened: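 Viability read-out: CellTiter-Fluor fluorescence after 23 h compound exposure at 37 C/5% CO2 in double-stable HepG2-CYP2B6-hCAR cells, with PK11195 present at 0.75 uM final; compounds tested in 15-point titration.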
On the % scale 0 is the no-effect control and ±100 the full control effect; potency means the concentration at half of the fitted maximal effect; tags describe the fitted curve by direction and shape.

| SMILES | Potency | viability change, negative = cytotoxic |
| --- | --- | --- |
| Cc1cc(C)c(S(=O)(=O)O)cc1N=Nc1cc(S(=O)(=O)O)c2ccccc2c1O | active: 61.1 µM | – |
| [O-][n+]1cccc(CO)c1 | – | inactive: 4.97% [at 42.5 µM] |
| NC(=O)N(O)[C@@H]1C=C[C@H](Oc2cccc(Oc3ccc(F)cc3)c2)C1 | inconclusive: 68.6 µM [cytotoxic, partial curve, poor fit] | – |
| Cn1c([N+](=O)[O-])cnc1COC(N)=O | inactive | – |
| O=Cc1ccc(Cl)c([N+](=O)[O-])c1 | – | inactive: -8.7% |
| CC(COc1ccc(C(C)(C)C)cc1)OS(=O)OCCCl (centres undefined) | inconclusive: 0.548 µM [cytotoxic, full curve] | – |
| Oc1ccc(Cc2ccccc2O)cc1 | inactive | – |
| CC(C)C(OC(=O)c1ccccc1)C(C)(C)COC(=O)c1ccccc1 (centres undefined) | – | inactive: 1.23% |
| CCc1nn(CCCN2CCN(c3cccc(Cl)c3)CC2)c(=O)n1CCOc1ccccc1 | inconclusive: 23.7 µM [cytotoxic, partial curve] | – |
| CC(N)C12CC3CC(CC(C3)C1)C2 (centres undefined) | inconclusive: 13.3 µM [cytotoxic, single point] | – |
| O=C1C(c2[nH]c3ccc(S(=O)(=O)O)cc3c2O)=Nc2ccc(S(=O)(=O)O)cc21 | – | inactive: 1.85% |
| COc1ccc(S(=O)(=O)N2C(=O)[C@@](c3ccccc3OC)(N3C[C@H](O)C[C@H]3C(=O)N(C)C)c3cc(Cl)ccc32)c(OC)c1 | active: 30.6 µM | – |
| O=S(=O)(c1ccc(OCc2ccccc2)cc1)c1ccccc1O | inconclusive: 77 µM [cytotoxic, single point] | – |
| CC[N+](CC)(CC)CCOc1ccc(/C=C/c2ccccc2)cc1 | inconclusive: 13.3 µM [cytotoxic, single point] | – |
| CC(=O)Oc1ccc([N+](=O)[O-])cc1CCl | active: 43.3 µM | – |
| S=C([S-])NCCNC(=S)[S-].S=C([S-])NCCNC(=S)[S-].[Mn+2].[Zn+2] | inconclusive: 11.9 µM [cytotoxic, partial curve] | – |
| CCN(CC)c1ccc2c(c1)Oc1cc(N(CC)CC)ccc1C21OC(=O)c2ccccc21 | active: 8.41 µM | – |

| SMILES | Potency | viability change, negative = cytotoxic |
| --- | --- | --- |
| CCN(CC)c1ccc2c(-c3ccccc3C(=O)O)c3ccc(=[N+](CC)CC)cc-3oc2c1 | active: 7.7 µM | – |
| CCOC(=O)c1ccc(C2CCC(NC[C@H](O)COc3ccc(O)c(NS(C)(=O)=O)c3)CC2)cc1 (some centres undefined) | – | inactive: -19.1% |
| CC(CCl)OP(=O)(OC(C)CCl)OC(C)CCl (centres undefined) | inactive | – |
| CC(=O)OCC1=C(C(=O)O)N2C(=O)[C@@H](NC(=O)CSc3ccncc3)[C@H]2SC1 | – | inactive: -3.68% [at 42.5 µM] |
| COc1ccc(Cl)cc1C(=O)NCCc1ccc(S(=O)(=O)NC(=O)NC2CCCCC2)cc1 | inactive | – |
| C[C@H]1c2cccc(O)c2C(O)=C2C(=O)[C@]3(O)C(O)=C(C(N)=O)C(=O)[C@@H](N(C)C)[C@@H]3[C@@H](O)[C@@H]21 | inconclusive: 33.5 µM [rising, single point] | – |
| CCCCOCCOCCOC(=O)CCCCC(=O)OCCOCCOCCCC | inactive | – |
| CCCCN(CCCC)C(C(N)=O)c1ccc(OC)cc1 (centres undefined) | – | inactive: -2.51% [at 42.5 µM] |
| CCC(C)C=O (centres undefined) | inactive | – |
| Nc1cccc2c(N)cccc12 | active: 24.3 µM | – |
| O=S(=O)(O)c1ccc(N=Nc2c(O)ccc3ccccc23)cc1 | inconclusive: 30.6 µM [cytotoxic, partial curve] | – |
| O=C(O)CCCCCCCCCCCC(=O)O | inconclusive: 67.5 µM [cytotoxic, single point] | – |
| C=C(C)[C@@H]1CCC2=CC(=O)C[C@@H](C)[C@]2(C)C1 | – | inactive: 0.129% |
| C=COCC1CCC(CO)CC1 (centres undefined) | – | inactive: -20.5% |
| Oc1cccc(O)c1O | inconclusive: 68 µM [cytotoxic, single point] | – |
| CC(C)(O)CCc1ccccc1 | – | inactive: -0.362% |

tested on: not listed separately; assay: qHTS assay to identify small molecule antagonists of the constitutive androstane receptor (CAR) signaling pathway - cell viability counter screen (AID 1224837); conditions: HepG2-CYP2B6-hCAR viability, CellTiter-Fluor, 23 h, co-treated with 50 nM CITCO; series mostly up to 92.4 µM; activity change, negative = cytotoxicity: at the top concentration; further: nearly all actives have a fitted effect of over 45% in size
Procedure, shortened: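 Cells are seeded, rested 4 hr at 37 C/5% CO2, dosed with compound (15-point series) and 50 nM CITCO, incubated a further 23 hr, and then CellTiter-Fluor reagent is added before fluorescence is read. The line is HepG2 with stable hCAR and CYP2B6-2.2kb.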

| SMILES | activity change, negative = cytotoxicity | Potency |
| --- | --- | --- |
| CC(C)NC[C@@H](O)COc1ccc(CC(N)=O)cc1 | inactive: -0.39% [at 42.5 µM] | – |
| O=Cc1cccc(Br)c1 | inactive: 2.25% | – |
| CCCc1nc2c(C)cc(-c3nc4ccccc4n3C)cc2n1Cc1ccc(-c2ccccc2C(=O)O)cc1 | inactive: -6.12% [at 42.5 µM] | – |
| NC1CCCCC1 | – | inactive |
| O=Nc1ccc(O)cc1 | – | inconclusive: 67 µM [cytotoxic, partial curve, poor fit] |
| OC1(c2ccc(Cl)cc2)CCNCC1 | inactive: 0.109% [at 42.5 µM] | – |
| C=CCCCCCCCCC=O | inactive: 3.16% | – |

biological target: Nuclear receptor subfamily 1 group I member 3 (Homo sapiens) (UniProt Q14994); assay: qHTS assay to identify small molecule agonists of the constitutive androstane receptor (CAR) signaling pathway (AID 1224839); conditions: HepG2 hCAR CYP2B6-luciferase, agonist mode, 24 h; series mostly up to 92.4 µM; activation: at the top concentration; further: nearly all actives have a fitted effect of over 15% in size;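 on activation: HepG2 cells stably carrying human CAR and a CYP2B6 luciferase reporter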
Chain of UniProt Q14994 (Q14994 whole entry, looked up): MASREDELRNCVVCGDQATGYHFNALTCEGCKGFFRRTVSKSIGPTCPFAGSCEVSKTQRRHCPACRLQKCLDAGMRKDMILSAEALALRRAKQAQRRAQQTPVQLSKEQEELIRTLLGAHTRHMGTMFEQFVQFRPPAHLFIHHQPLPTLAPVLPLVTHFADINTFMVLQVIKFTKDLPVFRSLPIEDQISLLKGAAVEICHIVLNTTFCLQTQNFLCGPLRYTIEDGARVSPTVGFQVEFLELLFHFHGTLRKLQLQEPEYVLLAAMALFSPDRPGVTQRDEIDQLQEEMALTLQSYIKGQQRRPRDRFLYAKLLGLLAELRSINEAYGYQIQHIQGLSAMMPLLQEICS
Procedure, shortened: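 Luminescence read-out (ONE-Glo, 30 min, room temperature) from double-stable HepG2-CYP2B6-hCAR cells exposed 24 h to 15-point compound series in presence of 0.75 uM PK11195 final.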

| SMILES | activation | Potency |
| --- | --- | --- |
| [O-][n+]1cccc(CO)c1 | inactive: 0.322% [at 42.5 µM] | – |
| Oc1ccc(Cc2ccccc2O)cc1 | – | inconclusive: 69.4 µM [activator, partial curve] and inconclusive: 61.1 µM [activator, partial curve] |
| CC(C)C(OC(=O)c1ccccc1)C(C)(C)COC(=O)c1ccccc1 (centres undefined) | – | inconclusive: 27.3 µM [activator, partial curve] |
| COc1ccc(S(=O)(=O)N2C(=O)[C@@](c3ccccc3OC)(N3C[C@H](O)C[C@H]3C(=O)N(C)C)c3cc(Cl)ccc32)c(OC)c1 | – | inconclusive: 68.6 µM [activator, single point] |
| CCN(CC)c1ccc2c(-c3ccccc3C(=O)O)c3ccc(=[N+](CC)CC)cc-3oc2c1 | – | inconclusive: 54.5 µM [activator, partial curve] |
| CC(CCl)OP(=O)(OC(C)CCl)OC(C)CCl (centres undefined) | – | inconclusive: 61.3 µM [activator, partial curve] and inconclusive: 51.2 µM [activator, partial curve] |
| CC(=O)OCC1=C(C(=O)O)N2C(=O)[C@@H](NC(=O)CSc3ccncc3)[C@H]2SC1 | inactive: 4.24% [at 42.5 µM] | – |
| CCCCN(CCCC)C(C(N)=O)c1ccc(OC)cc1 (centres undefined) | – | inconclusive: 26.6 µM [activator, partial curve] |
| C=COCC1CCC(CO)CC1 (centres undefined) | inactive: -0.705% | – |
